# This is one part of the list. Values were computed here from the reads of four pooled replicates and scatter widely.
# Biological target: T1, Pho4 (S. cerevisiae) (UniProt P07270)
# T1 sequence: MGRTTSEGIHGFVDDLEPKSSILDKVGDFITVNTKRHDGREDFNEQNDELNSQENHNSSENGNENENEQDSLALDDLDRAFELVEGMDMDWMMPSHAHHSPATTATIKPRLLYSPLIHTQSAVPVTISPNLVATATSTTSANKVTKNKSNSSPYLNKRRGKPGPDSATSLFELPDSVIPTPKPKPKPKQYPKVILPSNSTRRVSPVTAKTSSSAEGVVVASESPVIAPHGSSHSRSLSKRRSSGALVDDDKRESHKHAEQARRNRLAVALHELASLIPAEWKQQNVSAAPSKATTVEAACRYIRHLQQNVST
# Test: relative binding free energy (BET-seq); higher = weaker binding
# Conditions: reference: library average
row,Sequence,relative binding free energy [kcal/mol]
1,ATGGACACGTGGGAAA,0.11
2,GGGCGCACGTGTGAAG,0.05
3,GGTGTCACGTGAAGTG,0.44
4,GTAACCACGTGGGGGG,-0.08
5,GGTTACACGTGGTGCG,0.12
6,GCGTTCACGTGAGGTG,0.45
7,AAGTTCACGTGCGTTG,0.12
8,AAGGACACGTGGATGT,0.15
9,TTAGGCACGTGGTCGA,-0.25
10,ATGGGCACGTGGTTAA,-0.19
11,TTCTGCACGTGTCGGC,0.19
12,GTAGGCACGTGGGGGA,-0.14
13,GATTCCACGTGGGTGG,-0.01
14,ATGTGCACGTGGAAAT,-0.04
15,ATGAACACGTGTTGCG,0.07
16,AAAGTCACGTGCATGG,0.1
17,TGCGTCACGTGGGGTA,-0.07
18,TTTTGCACGTGGTAAT,-0.04
19,GATGTCACGTGGTTGC,0.06
20,AATGGCACGTGTGTTT,0.03
21,TGCATCACGTGGGAGG,0.03

row,Sequence,relative binding free energy [kcal/mol]
1,ACGTTCACGTGGCAGT,0.29
2,TATTTCACGTGGTGCG,0.17
3,GATGGCACGTGATGAG,0.06
4,CTGGTCACGTGGCTAG,0.04
5,AGTGGCACGTGGCAAT,-0.25
6,TATTGCACGTGGGTCA,-0.26
7,ATTTGCACGTGTGGGC,0.13
8,GCTGGCACGTGTTATG,-0.07
9,AGTTTCACGTGGAGTG,0.29
10,GTGGTCACGTGCGATA,0.22
11,CAATTCACGTGGTGGT,0.08
12,GGAAACACGTGTTGGT,0.11
13,TTCGTCACGTGTTTTT,0.17
14,GTTTGCACGTGGAATG,0.16
15,AGTCGCACGTGCGAGG,-0.03
16,GGAATCACGTGTAGTG,0.23
17,TCGGGCACGTGGTAGG,-0.31
18,GTGTCCACGTGAGGTA,0.3
19,TGGATCACGTGTTGTA,0.12
20,CATTGCACGTGCGGTG,-0.01
21,TAGTTCACGTGGTTAG,0.21

row,Sequence,relative binding free energy [kcal/mol]
1,TGGTTCACGTGCTGGC,0.32
2,GTTGACACGTGTCAGT,0.01
3,TGTTTCACGTGGCGAG,0.1
4,AGGTCCACGTGGTGCG,-0.13
5,ATATACACGTGTGGAT,0.14
6,GTTAGCACGTGATATG,0.14
7,GTGATCACGTGTTAGA,0.13
8,AGCTGCACGTGTGGCT,-0.02
9,AGGTGCACGTGGGTTA,-0.23
10,AGGTTCACGTGTCGAT,0.29
11,TTAGGCACGTGTTGTT,-0.01
12,AGCGGCACGTGTCGTG,0.05
13,GTAATCACGTGTGTTC,0.14
14,TGATGCACGTGGCTTG,-0.24
15,CGTAGCACGTGGCTGT,-0.14
16,ATTGTCACGTGGTAGG,-0.01
17,TTTGTCACGTGAACGA,0.33
18,GTGTTCACGTGTTACA,0.27
19,GGTTTCACGTGCATGC,0.33
20,AGTATCACGTGGGCAC,0.17
21,TTCTCCACGTGGGGTG,-0.27
